From the supplement of paper PMC8728848
About 410 targets per protein were measured; listed, in parts, are those with the strongest signals and a random draw of the rest.

These substances were tested on Gal(b1-4)GlcNAc(b1-3)Gal(b1-4)[Fuc(a1-3)]GlcNAc(b1-3)Gal(b1-4)[Fuc(a1-3)]GlcNAc (assay: glycan array binding signal (z-score within array); higher = stronger binding). Conditions: glycan notation: IUPAC condensed, linker removed.
In short: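 The binding signal is a Z-score computed within each array and averaged over linkers. Arrays of the same protein sequence at different concentrations or buffers were also averaged together. Data originate from 3228 arrays in the Consortium for Functional Glycomics database, kept only where the protein sequence was available.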

Substance	glycan array binding signal (z-score)
H-Ficolin (Homo sapiens) (chain not printed)	-0.097
NCAM1 (Homo sapiens) (chain not printed)	-0.61
CLEC-2 (Homo sapiens) (chain not printed)	-0.011
M-Ficolin G221F A256V (Homo sapiens) (chain not printed)	-0.269
